For 23 molecules, survival results are on record in PubChem BioAssay AID463173 (ICCB-Longwood Screening Facility, Harvard Medical School, 2010).

The whole screen tested about 52,000 compounds, of which about 1,700 (3.3%) were called active. Cut-off read from the data, not from the text of the source: active = survival mostly below about 52% (no sharp cut-off); inactive = mostly above about 56%. The list shows a part of the results.

The experiment deals with Wild type. Put plainly: growth inhibition of S. aureus wild type versus tarO mutant, primary screen, teichoic acid synthesis inhibitors, RN4220, OD600 (AID 463173). The settings on record: S. aureus RN4220 wild type/DeltatarO growth, OD600, 18 h, active compounds read low, screened at 18.75 µg/mL (by protocol).
Regarding `COc1ccccc1CNC(=O)CCn1c(=O)c2ccccc2n(CC(=O)Nc2cc(Cl)ccc2C)c1=O`, the survival was inactive: 104%.

In the case of `CCOC(=O)c1ccc(N2C(=O)c3[nH]nc(-c4ccc(OC)cc4)c3C2c2cccc(O)c2)cc1` (stereo not drawn), the survival is inactive: 85%.

For `CCc1cccc(NC(=O)CSc2ncc3c(n2)-c2cc(Cl)ccc2N(C)S3(=O)=O)c1`, the survival was inactive: 65%.

In the case of `O=c1cc(COc2ccccc2Cl)nc2scc(-c3ccccc3)n12`, the survival was inactive: 83%.

With `COc1ccccc1NC(=O)Cn1nnc(C(=O)NCc2cccs2)c1N`, the survival is inactive: 81%.

For the molecule `Cc1ccc(Cl)cc1N1CCN(C(=O)Cn2nc(C)c3sc4ccccc4c3c2=O)CC1`, the survival was inactive: 60%.

As for `Cc1ccc(S(=O)(=O)N2CCN(S(=O)(=O)c3ccc(C)cc3)CC2)cc1`, the survival was inactive: 108%.

`Cc1ccc(C2NC(=O)c3n[nH]c(-c4cccs4)c32)cc1` (stereo not drawn): the survival was inactive: 78%.

As for `COc1ccc(NC(=O)CCS(=O)(=O)c2nc(-c3ccc4c(c3)OCO4)cc(C(F)(F)F)n2)cc1OC`, the survival was inactive: 76%.

For `CCC(C)NC(=O)CCSc1nc(-c2ccc3c(c2)OCO3)cc(C(F)(F)F)n1` (stereo not drawn), the survival was inactive: 132%.

As for `O=C(Nc1cccc(C(=O)OCc2cc(=O)n3c4c(sc3n2)CCCC4)c1)c1cccc(F)c1`, the survival is inactive: 73%.

Take `Cc1ccc(NC(=O)CSc2nc(=O)n(Cc3ccccn3)c3c2CCC3)cc1F`: the survival was inactive: 74%.

Consider `COC(=O)c1c(NC(=O)Cc2coc3cc(C)cc(C)c23)sc2c1CCC2`, for which the survival was inactive: 83%.

On to `COc1cc(C(=O)NCc2ccc3c(c2)CCN3C(=O)c2ccc(Cl)cc2)cc(OC)c1OC`, for which the survival was inactive: 89%.

With `O=S(=O)(NCc1ccccc1)c1ccc(S(=O)(=O)N2CCCCCC2)cc1`, the survival is inactive: 109%.

For `COc1ccc(C2CC(=O)c3cc(-c4nc(-c5cccc([N+](=O)[O-])c5)cs4)c(=O)n(-c4cccc(C)c4)c3C2)cc1` (stereo not drawn), the survival is inactive: 80%.

As for `Cc1ccc(NC(=O)CSc2nc3ccc(NC(=O)c4ccco4)cc3s2)cc1`, the survival was inactive: 95%.

In the case of `CCN(CC)c1ccc(-c2nc(NC(C)=O)c3c(=O)oc4ccccc4c3n2)cc1`, the survival was inactive: 110%.

`COCCNC(=O)c1c(NC(=O)c2cc(=O)c3cc(C)cc(C)c3o2)sc2c1CCCC2`: the survival was inactive: 85%.

With `CCc1ccc(NC(=O)c2cnc3c(-c4ccccc4)c(C)nn3c2C)cc1`, the survival was inactive: 83%.

Consider `C=CCc1c(C)nc2ccccc2c1Cl`, for which the survival is inactive: 101%.

Turning to `CC(=O)c1ccc(NC(=O)c2ccc(-c3nc(CSc4ccc(C)cc4)c(C)o3)cc2)cc1`, the survival is inactive: 71%.

Consider `O=C(Nc1ccccc1Cl)N1CCC2(CC1)Oc1ccccc1C(=O)N2Cc1ccc(F)cc1`, for which the survival was inactive: 77%.
